A lower IC50 marks a more sensitive line; a limit (>, <) means that the fit lies beyond the doses tested. AUC is the area under the same curve over the 256-fold range up to the top dose, as a fraction; it is 1 without any effect and falls as sensitivity rises. For part of these data: A top dose marked as inferred was calculated from the reported fits. For part of these data: Drugs with an entry number were screened twice under separate entries, and the two screens often disagree.
What was measured:
Assay in all cases: Viability of human cancer cell lines after 72 h of drug (GDSC screen)
Thapsigargin = compound: C/C=C(/C)C(=O)O[C@H]1C(C)=C2[C@H]([C@@H]1OC(=O)CCCCCCC)[C@@](C)(OC(C)=O)C[C@H](OC(=O)CCC)[C@@]1(O)[C@H]2OC(=O)[C@@]1(C)O [Thapsigargin]; conditions: top dose 0.512 µM; top dose inferred
Protocol: (§1)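 Human cancer cell lines in 384-well plates, medium with 10% serum, drug for 72 h over a 256-fold dose range (nine 2-fold or five 4-fold steps up to the top dose). Adherent lines were fixed and stained with the nucleic acid dye Syto60, suspension lines read with resazurin; signal relative to control wells, capped at 0 and 100%. One two-parameter sigmoid per drug and line, fitted in a mixed model over all curves with the slope shared within a line.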

QL-X-138 = compound: C=CC(=O)Nc1cc(-n2c(=O)ccc3cnc4ccc(-c5cn[nH]c5)cc4c32)ccc1C [QL-X-138]; conditions: top dose 10.24 µM; top dose inferred
Protocol: as §1

GSK269962A = compound: CCn1c(-c2nonc2N)nc2cnc(Oc3cccc(NC(=O)c4ccc(OCCN5CCOCC5)cc4)c3)cc21 [GSK269962A]; conditions: top dose inferred
Protocol: as §1

MPS-1-IN-1 = compound: COc1cc(N2CCC(O)CC2)ccc1Nc1cc(Nc2ccccc2S(=O)(=O)C(C)C)c2cc[nH]c2n1 [MPS-1-IN-1]; conditions: top dose 20 µM; top dose inferred
Protocol: as §1

(5Z)-7-Oxozeaenol = compound: COc1cc(O)c2c(c1)/C=C/C[C@H](O)[C@H](O)C(=O)/C=C\C[C@H](C)OC2=O [(5Z)-7-Oxozeaenol]; conditions: top dose 10 µM; top dose inferred
Protocol: as §1

CP466722 = compound: COc1cc2ncnc(-n3nc(-c4ccccn4)nc3N)c2cc1OC [CP466722]; conditions: top dose 16 µM; top dose inferred
Protocol: as §1

Zibotentan = compound: COc1nc(C)cnc1NS(=O)(=O)c1cccnc1-c1ccc(-c2nnco2)cc1 [Zibotentan]; conditions: top dose 20 µM; top dose inferred
Protocol: as §1

ABT-888 = compound: C[C@]1(c2nc3c(C(N)=O)cccc3[nH]2)CCCN1 [ABT-888]; conditions: top dose 5 µM; top dose inferred
Protocol: as §1

CMK = compound: Cc1ccc(-c2c(C(=O)CCl)n(CCCO)c3ncnc(N)c23)cc1 [CMK]; conditions: top dose 4 µM; top dose inferred
Protocol: as §1

ABT-869 = compound: Cc1ccc(F)c(NC(=O)Nc2ccc(-c3cccc4[nH]nc(N)c34)cc2)c1 [ABT-869]; conditions: top dose 1.024 µM; top dose inferred
Protocol: as §1

CHIR-99021 = compound: Cc1cnc(-c2cnc(NCCNc3ccc(C#N)cn3)nc2-c2ccc(Cl)cc2Cl)[nH]1 [CHIR-99021]
Protocol: as §1

Cytarabine = compound: Nc1ccn([C@@H]2O[C@H](CO)[C@@H](O)[C@@H]2O)c(=O)n1 [Cytarabine]; conditions: top dose 2 µM
Protocol: as §1

KU-55933 = compound: O=c1cc(-c2cccc3c2Sc2ccccc2S3)oc(N2CCOCC2)c1 [KU-55933]; conditions: top dose 10 µM
Protocol: as §1

[1] = top dose 2.5 µM, screen: GDSC drug entry 127
[2] = top dose 5 µM, screen: GDSC drug entry 1192
[3] = top dose 2.56 µM, screen: GDSC drug entry 154
[4] = top dose 10 µM, screen: GDSC drug entry 1241, top dose inferred

Cell Line	AUC (Thapsigargin)	IC50 (Thapsigargin)	AUC (QL-X-138)	IC50 (QL-X-138)	AUC (GSK269962A; [1])	IC50 (GSK269962A; [1])	AUC (GSK269962A; [2])	IC50 (GSK269962A; [2])	AUC (MPS-1-IN-1)	IC50 (MPS-1-IN-1)	AUC ((5Z)-7-Oxozeaenol)	IC50 ((5Z)-7-Oxozeaenol)	AUC (CP466722)	IC50 (CP466722)	AUC (Zibotentan)	IC50 (Zibotentan)	AUC (ABT-888)	IC50 (ABT-888)	AUC (CMK)	IC50 (CMK)	AUC (ABT-869)	IC50 (ABT-869)	AUC (CHIR-99021; [3])	IC50 (CHIR-99021; [3])	AUC (CHIR-99021; [4])	IC50 (CHIR-99021; [4])	AUC (Cytarabine)	IC50 (Cytarabine)	AUC (KU-55933)	IC50 (KU-55933)
HSC-39 (stomach, suspension)	0.663	84.3 nM	0.818	4770 nM	0.98	> 2500 nM	0.848	2960 nM	0.989	> 20 µM	0.821	4790 nM	0.845	9.28 µM	0.991	> 20 µM	0.988	> 5 µM	0.983	> 4000 nM	0.984	> 1020 nM	0.991	> 2.56 µM	0.971	> 10 µM	0.921	> 2000 nM	0.899	9.6 µM
HT (B-cell lymphoma, suspension)	0.261	7.12 nM	0.769	3550 nM	0.915	> 2500 nM	0.942	> 5000 nM	0.948	> 20 µM	0.866	7730 nM	0.892	> 16 µM	0.982	> 20 µM	0.99	> 5 µM	0.93	> 4000 nM	0.983	> 1020 nM	0.99	> 2.56 µM	0.989	> 10 µM	0.953	> 2000 nM	0.912	> 10 µM
HUTU-80 (digestive system, adherent)	0.165	3.96 nM	0.333	241 nM	0.904	2330 nM	0.92	> 5000 nM	0.708	4.28 µM	0.682	1820 nM	0.677	2.83 µM	0.988	> 20 µM	0.991	> 5 µM	0.817	1770 nM	0.987	> 1020 nM	0.987	> 2.56 µM	0.991	> 10 µM	0.772	645 nM	0.978	> 10 µM
IMR-5 (neuroblastoma, adherent)	0.392	17 nM	0.478	563 nM	0.99	> 2500 nM	0.46	248 nM	0.846	11.3 µM	0.655	1560 nM	0.719	3.69 µM	0.992	> 20 µM	0.969	> 5 µM	0.931	> 4000 nM	0.974	> 1020 nM	0.989	> 2.56 µM	0.976	> 10 µM	0.992	> 2000 nM	0.992	> 10 µM
IST-SL1 (small cell lung carcinoma, semi-adherent)	0.484	28.9 nM	0.557	923 nM	0.877	> 2500 nM	0.707	1230 nM	0.902	> 20 µM	0.712	2530 nM	0.745	5.16 µM	0.98	> 20 µM	0.987	> 5 µM	0.969	> 4000 nM	0.967	> 1020 nM	0.987	> 2.56 µM	0.985	> 10 µM	0.776	818 nM	0.98	> 10 µM
JJN-3 (haematopoietic neoplasm, suspension)	0.133	3.13 nM	0.447	471 nM	0.973	> 2500 nM	0.903	4470 nM	0.889	15.6 µM	0.608	1170 nM	0.731	3.92 µM	0.991	> 20 µM	0.992	> 5 µM	0.806	1610 nM	0.992	> 1020 nM	0.988	> 2.56 µM	0.975	> 10 µM	0.315	42.4 nM	0.97	> 10 µM
JM1 (B-cell lymphoma, suspension)	0.467	26.4 nM	0.507	666 nM	0.931	> 2500 nM	0.894	4530 nM	0.838	10.9 µM	0.689	1940 nM	0.692	3.16 µM	0.99	> 20 µM	0.99	> 5 µM	0.845	2300 nM	0.991	> 1020 nM	0.955	> 2.56 µM	0.845	5.77 µM	0.325	44 nM	0.958	> 10 µM
JVM-3 (lymphoid neoplasm, suspension)	0.364	13.4 nM	0.869	9720 nM	0.986	> 2500 nM	0.893	> 5000 nM	0.817	11.4 µM	0.536	785 nM	0.93	> 16 µM	0.98	> 20 µM	0.92	> 5 µM	0.983	> 4000 nM	0.986	> 1020 nM	0.984	> 2.56 µM	0.98	> 10 µM	0.81	1070 nM	0.873	9.84 µM

Source: the supplement of paper PMC4967469
